# “And” between values parts separate entries of the source, which are not always exact repeats. Equal values may be shown once. Read-outs that look alike come from different tables or passages of the source.
# Experiments:
# Format in all cases: cell-based
# Fusarium graminerum [1] = settings: 8 days
# Botrytis cinerea [2] = test: Fungal growth on PDA agar, hydropene (Example 16); settings: 4 days
# Fusarium culmorum [3] = test: Fungal growth on PDA agar, thiamethoxam (Example 12); settings: natamycin 0.5 pm alone; 4 days
# Source text: (§1) The Colby equation (Colby, 1967. Weeds 15: 20-22) calculates the expected antifungal activity (E in %) of a combination comprising more than one active ingredients: E=X+Y−[(X·Y)/100] wherein X and Y are the observed antifungal activities (in %) of the individual active ingredients x and y, respectively. If the observed antifungal activity (O in %) of the combination exceeds the expected antifungal activity (E in %) of the combination and the synergy factor O/E is thus >1.0, the combined application of the active ingredients leads to a synergistic antifungal effect.
# (§2) Agar medium was prepared by mixing in a 100 ml Duran bottle 3.9 g of potato dextrose agar (PDA) from Carl-Roth (Carl-Roth GmbH+Co. KG, Karlsruhe, Germany) with 100 ml deionized water and autoclaving the Duran bottle at 120° C. for 15 minutes. After autoclaving, the solution was cooled by putting it in a 48° C. oven for about two hours. […] The medium in the Duran bottle was divided over 5 petri dishes (90×15 mm), 20 ml per petri dish by using 25 ml serological pipets (ROTILABO®; Carl-Roth).
# (§3) Fungal spore suspensions were prepared by drenching a fully grown petri dish with sterile water. The fungus was scraped off and filtered through a Miracloth (pore size: 22-25 μm) (Merck KGaA, Darmstadt, Germany; catalogue number: 475855). The number of spores were counted with a hemocytometer and fungal suspension was adjusted to 10^6 spores per ml. Afterward, 5 µl of prepared spore suspension was pipetted on the center of the agar plate. The plates were incubated at 25° C. Measurement of the fungal growth was done using calipers at different time points.
# See Example 6. In this example the active ingredient thiamethoxam belonging to IRAC Group 4 was mixed with water to make a 1000 ppm solution. The insecticide concentration “N” (see below) that was used was 5 ml of insecticide solution per 100 ml PDA agar. 2N is 10 ml of the thiamethoxam solution per 100 ml PDA agar.
# The efficacy was assessed after 4 days of incubation in a stove at 25° C.
# Fusarium graminerum [4] = settings: 8 days; remark: listed apart in the source
# Fusarium culmorum [5] = test: Fungal growth on PDA agar, chlorfenapyr (Example 20); settings: natamycin 1 ppm alone; 7 days
# Source text: as §1, §2, §3
# See Example 6. In this example the product SPECTRE® (Adama) containing the active ingredient chlorfenapyr belonging to IRAC Group 13 was used.
# The insecticide concentration “N” (see below) that was used was 1 ml of Spectre product added to 100 ml PDA agar. 0.5N: 0.5 ml and 0.25N is 0.25 ml Spectre per 100 ml of PDA agar.
# (§4) The efficacy was assessed after 7 days of incubation in a stove at 25° C.
# Botrytis cinerea [6] = test: Fungal growth on PDA agar, lambda-cyhalothrin (Example 10); settings: natamycin 1 ppm alone; 6 days
# Source text: as §1, §2, §3
# (§5) See Example 6. In this example the product KARATE ZEON® of Syngenta containing the active ingredient lambda-cyhalothrin belonging to IRAC Group 3 was used.
# The insecticide concentration “N” (see below) that was used was 20 μl of insecticide product per 100 ml PDA agar. 0.5N is 10 μl of the product per 100 ml PDA agar. 0.25N was 5 μl of the undiluted Karate zeon product in 100 ml of PDA agar and 0.125N was 2.5 μl of the insecticide product per 100 ml PDA agar.
# 1:25 (w/w) and 1:50 (w/w). The efficacy was assessed after 6 days of incubation in a stove at 25° C.
# Fusarium graminerum [7] = settings: 5 days
# Botrytis cinerea [8] = test: Fungal growth on PDA agar, chlorantraniliprole (Example 15); settings: natamycin 1 ppm alone
# Source text: as §1, §2, §3
# See Example 6. In this example the product CORAGEN® of Dupont containing the active ingredient chlorantraniliprole belonging to IRAC Group 28 was used.
# The insecticide concentration “N” (see below) that was used was 125 μl of insecticide product per 100 ml PDA agar. Per 100 ml PDA agar the concentration 0.25N contained 31.25 μl coragen; 0.5N contained 62.5 μl coragen, 2N contained 250 μl coragen, 5N contained 625 μl coragen and 10N contained 1250 μl of the coragen product per 100 ml PDA agar.
# The efficacy was assessed after 4 and 5 days of incubation in a stove at 25° C.
# Sclerotinia sclerotiorum = test: Fungal growth on PDA agar, lambda-cyhalothrin (Example 9); settings: natamycin 0.5 ppm alone; 4 days
# Source text: as §1, §2, §3, §5
# The insecticide concentration “N” (see below) that was used was 500 μl of a 25 times in water diluted insecticide solution per 100 ml PDA agar. 2N is 1000 μl of the in water diluted solution per 100 ml PDA agar. 5N was 100 μl of the undiluted product in 100 ml of PDA agar.
# Fusarium culmorum [9] = test: Fungal growth on PDA agar, abamectin, 8 and 12 days (Example 13); settings: natamycin 1 ppm alone
# Source text: as §1, §2, §3
# See Example 6. In this example the product […]® (Syngenta) containing the active ingredient abamectin belonging to IRAC Group 6 was used.
# The insecticide concentration “N” (see below) that was used was 75 μl of insecticide product per 100 ml PDA agar. 0.5N is 37.5 μl of the product per 100 ml PDA agar.
# The efficacy was assessed after 8 and 12 days of incubation in a stove at 25° C.
# Alternaria solani = test: Fungal growth on PDA agar, lambda-cyhalothrin (Example 8); settings: natamycin 0.5 ppm alone; 4 days
# Source text: as §1, §2, §3, §5
# The insecticide concentration “N” (see below) that was used was 500 μl of a 25 times in water diluted insecticide solution per 100 ml PDA agar. 2N is 1000 μl of the in water diluted solution per 100 ml PDA agar. 5N was 100 μl of the undiluted Karate zeon product in 100 ml of PDA agar.
# Fusarium graminerum [10] = tested on: Fusarium graminerum
# Fusarium culmorum [11] = test: Fungal growth on PDA agar, hydropene (Example 17); settings: 5 days
# Fusarium culmorum [12] = test: Fungal growth on PDA agar, fipronil (Example 6); settings: natamycin 1 ppm alone; 7 days
# Source text: as §1, §2, §3
# The insecticide concentration “N” (see below) that was used was 0.94 g insecticide product per 100 ml PDA agar. 0.5 N is 0.47 g. […] The efficacy was assessed after 7 days of incubation in a stove at 25° C. Synergistic calculation was done using the Colby equation.
# Fusarium culmorum [13] = test: Fungal growth on PDA agar, abamectin, 7 days (Example 14); settings: natamycin 1 ppm alone
# Source text: as §1, §2, §3
# See Example 6. In this example the product […]® (Syngenta) containing the active ingredient abamectin belonging to IRAC Group 6 was used. The insecticide concentration “N” (see below) that was used was 75 μl of insecticide product per 100 ml PDA agar. 0.5N is 37.5 μl of the product per 100 ml PDA agar.
# as §4
# Fusarium graminerum [14] = settings: 3 days
# Fusarium culmorum [15] = test: Fungal growth on PDA agar, lambda-cyhalothrin (Example 7); settings: natamycin 1 ppm alone; 7 days
# Source text: as §1, §2, §3, §5
# The insecticide concentration “N” (see below) that was used was 20 μl insecticide product per 100 ml PDA agar. 0.5 N is 10 μl per 100 ml PDA agar.
# [16] = hydropene 0.25N (75 μl of 2.49 ml Gentrol in 50 ml water), alone or + natamycin 1 ppm (1:3.4 w/w)
# [17] = hydropene 0.5N (150 μl of 2.49 ml Gentrol in 50 ml water), alone or + natamycin 1 ppm (1:6.75 w/w)
# [18] = hydropene 1N (300 μl of 2.49 ml Gentrol in 50 ml water), alone or + natamycin 1 ppm (1:13.5 w/w)
# [19] = emamectin benzoate 0.5N (125 mg OPTIGARD Cockroach Gel Bait per 100 ml PDA), alone or + natamycin 0.25 ppm (1:5 w/w)
# [20] = emamectin benzoate 1N (250 mg OPTIGARD Cockroach Gel Bait per 100 ml PDA), alone or + natamycin 0.25 ppm (1:10 w/w)
compound,measurement,setting,value
C/C=C(\C)C(=O)O[C@H]1C[C@@H](OC(C)=O)[C@@]2(C(=O)OC)CO[C@H]3[C@@H](O)[C@@](C)([C@]45O[C@@]4(C)[C@H]4C[C@@H]5O[C@@H]5OC=C[C@@]54O)[C@H]4[C@]1(CO[C@]4(O)C(=O)OC)[C@@H]32 [Azadirachtin],Area (fungal growth),Fusarium graminerum [1],2262.22 mm2 and 3303.19 mm2
"C[C@@H]1C/C=C/C=C/C=C/C=C/[C@H](O[C@@H]2O[C@H](C)[C@@H](O)[C@H](N)[C@@H]2O)C[C@@H]2O[C@](O)(C[C@@H](O)C[C@H]3O[C@@H]3/C=C/C(=O)O1)C[C@H](O)[C@H]2C(=O)O [Natamycin, natamycin]",Area (fungal growth),Botrytis cinerea [2]; natamycin 1 ppm alone,11.51 mm2
same,O % observed antifungal activity,Botrytis cinerea [2]; natamycin 1 ppm alone,99.61%
same,Area (fungal growth),Fusarium culmorum [3],789.92 mm2
same,O % observed antifungal activity,Fusarium culmorum [3],15.59%
same,Area (fungal growth),Fusarium graminerum [4],2225.44 mm2
same,O % observed antifungal activity,Fusarium graminerum [4],31.81%
same,Area (fungal growth),Fusarium culmorum [5],1840.10 mm2
same,O % observed antifungal activity,Fusarium culmorum [5],28.42%
same,Area (fungal growth),Botrytis cinerea [6],2361.79 mm2
same,O % observed antifungal activity,Botrytis cinerea [6],27.35%
same,Area (fungal growth),Fusarium graminerum [7],1294.81 mm2
same,O % observed antifungal activity,Fusarium graminerum [7],51.54%
same,Area (fungal growth; column head not given),Botrytis cinerea [8]; after 4 days,1456.89
same,O % observed antifungal activity,Botrytis cinerea [8]; after 4 days,42.22
same,Area (fungal growth),Botrytis cinerea [8]; after 5 days,3089.49 mm2
same,O % observed antifungal activity,Botrytis cinerea [8]; after 5 days,27.60%
same,Area (fungal growth),Sclerotinia sclerotiorum,1084.35 mm2
same,O % observed antifungal activity,Sclerotinia sclerotiorum,44.60%
same,Area (fungal growth),Fusarium culmorum [9]; after 8 days,2225.44 mm2
same,O % observed antifungal activity,Fusarium culmorum [9]; after 8 days,31.81%
same,Area (fungal growth),Fusarium culmorum [9]; after 12 days,3962.08 mm2
same,O % observed antifungal activity,Fusarium culmorum [9]; after 12 days,18.35%
same,Area (fungal growth),Fusarium graminerum [1],2225.44 mm2
same,O % observed antifungal activity,Fusarium graminerum [1],31.81%
same,Area (fungal growth),Alternaria solani,722.91 mm2
same,O % observed antifungal activity,Alternaria solani,55.73%
same,Area (fungal growth),Fusarium graminerum [10]; after 8 days,2225.44 mm2
same,O % observed antifungal activity,Fusarium graminerum [10]; after 8 days,31.81%
same,Area (fungal growth),Fusarium graminerum [10]; after 12 days,3962.08 mm2
same,O % observed antifungal activity,Fusarium graminerum [10]; after 12 days,18.35%
same,Area (fungal growth),Fusarium culmorum [11]; natamycin 1 ppm alone,811.66 mm2
same,O % observed antifungal activity,Fusarium culmorum [11]; natamycin 1 ppm alone,4.88%
same,Area (fungal growth),Fusarium culmorum [12],1865.54 mm2
same,O % observed antifungal activity,Fusarium culmorum [12],37.35%
same,Area (fungal growth),Fusarium culmorum [13],1865.54 mm2
same,O % observed antifungal activity,Fusarium culmorum [13],37.35%
same,Area (fungal growth),Fusarium graminerum [14],484.32 mm2
same,O % observed antifungal activity,Fusarium graminerum [14],1.84%
same,Area (fungal growth),Fusarium culmorum [15],1865.54 mm2
same,O % observed antifungal activity,Fusarium culmorum [15],37.35%
"CCOC(=O)/C=C(C)/C=C/CC(C)CCCC(C)C (stereo not shown) [hydropene, hydroprene]",Area (fungal growth),Botrytis cinerea [2]; [16],287.31 mm2
same,O % observed antifungal activity,Botrytis cinerea [2]; [16],90.20%
same,Area (fungal growth),Botrytis cinerea [2]; [17],270.12 mm2
same,O % observed antifungal activity,Botrytis cinerea [2]; [17],90.78%
same,Area (fungal growth),Botrytis cinerea [2]; [18],251.05 mm2
same,O % observed antifungal activity,Botrytis cinerea [2]; [18],91.43%
same,O % observed antifungal activity,Fusarium graminerum [7],83.75% and 88.72% and 75.87%
same,Area (fungal growth),Fusarium culmorum [11]; [16],410.28 mm2
same,O % observed antifungal activity,Fusarium culmorum [11]; [16],51.92%
same,Area (fungal growth),Fusarium culmorum [11]; [17],371.59 mm2
same,O % observed antifungal activity,Fusarium culmorum [11]; [17],56.45%
same,Area (fungal growth),Fusarium culmorum [11]; [18],291.67 mm2
same,O % observed antifungal activity,Fusarium culmorum [11]; [18],65.82%
emamectin benzoate,Area (fungal growth),Fusarium graminerum [14]; [19],329.33 mm2
same,O % observed antifungal activity,Fusarium graminerum [14]; [19],33.25%
same,Area (fungal growth),Fusarium graminerum [14]; [20],486.54 mm2
same,O % observed antifungal activity,Fusarium graminerum [14]; [20],1.39%

# From patent US12484583B2 (priority 2019, dated 2025)
